# The whole screen tested about 200,000 compounds, of which about 4,500 (2.2%) were called active. Inconclusive results, whose numbers are uncertain, are shown with a selection of clear calls. Calls come from the whole dose curve; as a rule, active = well fitted inhibition curve with a large enough effect; inconclusive = small, poorly fitted or top-dose-only effect, or effect the other way; inactive = flat fitted curve, though single readings scatter. A potency beside an inconclusive call is a rough fit, not a confirmed value.
# Molecular target: Cruzipain (Trypanosoma cruzi) (UniProt P25779)
# Chain of UniProt P25779 (P25779 whole entry, looked up): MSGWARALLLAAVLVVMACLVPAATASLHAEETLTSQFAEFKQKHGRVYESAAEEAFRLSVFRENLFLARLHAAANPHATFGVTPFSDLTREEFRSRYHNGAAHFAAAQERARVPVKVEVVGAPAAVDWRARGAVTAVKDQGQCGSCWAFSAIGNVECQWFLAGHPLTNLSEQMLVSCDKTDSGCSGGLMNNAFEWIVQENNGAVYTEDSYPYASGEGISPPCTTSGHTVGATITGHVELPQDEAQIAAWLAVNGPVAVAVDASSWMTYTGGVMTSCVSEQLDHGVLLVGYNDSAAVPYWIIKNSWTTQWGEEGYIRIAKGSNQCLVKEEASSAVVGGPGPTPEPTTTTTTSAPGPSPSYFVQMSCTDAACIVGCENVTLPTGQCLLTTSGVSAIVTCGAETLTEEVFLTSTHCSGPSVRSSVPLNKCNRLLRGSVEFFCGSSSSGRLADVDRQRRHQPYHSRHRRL
# Assay: qHTS Assay for Promiscuous and Specific Inhibitors of Cruzain (without detergent); note: nearly all actives have a fitted effect of over 40% in size;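 for max response, negative = inhibition: plate controls were enzyme without inhibitor for no effect and buffer without enzyme for full effect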
# Conditions: purified cruzain, Z-FR-AMC fluorescence, no detergent
# How it was run: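 Purified cruzain at 1.5 nM, pre-incubated 15 min with compound at room temperature in 100 mM sodium acetate pH 5.5, 5 mM DTT, 0.00005% Triton X-100. Reaction started with 2 uM Z-FR-AMC; AMC fluorescence increase over 60 s gives rate.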
# Potency is the fitted concentration of half-maximal effect; tags give direction and shape of the fitted curve.
SMILES,Potency,"max response, negative = inhibition"
Cc1nc(SCC(=O)Nc2nc3ccccc3s2)c(C#N)c(C)c1C,"inconclusive: 39.8 µM [inhibitor, single point]",
COc1cc2[nH]c(=O)n3nc(-c4ccccc4)nc3c2cc1OC,"inconclusive: 39.8 µM [activator, single point]",
Cc1cc2c(c(C)c1Br)C(c1ccc3c(c1)OCO3)CC(=O)O2 (configuration not stated),"inconclusive: 39.8 µM [inhibitor, single point]",
Cc1ccc(C)c(N2CCN(C(=O)CN3C(=O)COc4ccc(S(=O)(=O)N5CCC(C)CC5)cc43)CC2)c1,,inactive: -8.27%
COc1ccccc1N1CCN(C(=O)C(C)N(c2ccc(C)cc2)S(C)(=O)=O)CC1 (configuration not stated),"inconclusive: 25.1 µM [activator, single point]",
Cc1ccc(-c2ccc(CCC(=O)O)n2-c2cccc(C)c2C)cc1,,inactive: 29.1%
CN(C)C=Nc1ccc2nn(-c3ccccc3)nc2c1,,inactive: -2.25%
O=C(CSCc1ccc(F)cc1)N1CCc2c([nH]c3ccccc23)C1c1ccc(F)cc1 (configuration not stated),"inconclusive: 39.8 µM [inhibitor, single point]",
COc1ccc(S(=O)(=O)N2CCN(c3ccc(C)cc3C)CC2)cc1OC,"inconclusive: 31.6 µM [activator, single point]",
CC(C)CC(C(=O)OCC(=O)Nc1cccc(Cl)c1)N1C(=O)C2CC=CCC2C1=O (configuration not stated),,inactive: -19.2%
CCNC(=S)N/N=C/c1ccc(OCCOc2ccccc2C)cc1,active: 15.8 µM,
O=C(c1ccccc1)N1CCN(c2ccc([N+](=O)[O-])c(N3CCOCC3)c2)CC1,,inactive: -1.31%
Cc1ccc(NC(=O)C2CCN(S(=O)(=O)c3cccc4nonc34)CC2)c(Cl)c1,,inactive: -16.3%
COC(=O)CN1C(c2cccc(Cl)c2)=Nc2ccc(Cl)cc2C1c1ccccc1 (configuration not stated),"inconclusive: 39.8 µM [inhibitor, single point]",
COc1cc2c(cc1NC(=O)C(C)Sc1cccc[n+]1[O-])oc1ccccc12 (configuration not stated),"inconclusive: 39.8 µM [activator, single point]",
CCOC(=O)C1=C(C)c2ccccc2N(C(=O)OC)C1(C)C(=O)OCC (configuration not stated),"inconclusive: 44.7 µM [activator, single point]",
Cc1ccccc1CNC(=O)CCc1cn(Cc2ccccc2C)c2ccccc12,,inactive: 0.523%
CCN(CC)S(=O)(=O)c1ccc(NC(=O)c2ccc3c(=O)n4c(nc3c2)CCCCC4)cc1,"inconclusive: 39.8 µM [activator, single point]",
CCOc1ccc(NC(=O)c2ccc3c(c2)nnn3C2CCCC2)cc1,,inactive: -5.54%
CCOc1ccc2nc(NS(=O)(=O)c3ccc4c(c3)n(C)c(=O)n4C)sc2c1,"inconclusive: 39.8 µM [activator, single point]",
N#C/C(=C/c1ccc(-c2ccccc2)o1)c1nc(-c2cccs2)cs1,active: 7.94 µM,

SMILES,Potency,"max response, negative = inhibition"
COc1ccc2c(c1)Cc1cc(N=[N+]([O-])c3ccc4c(c3)Cc3cc(OC)ccc3-4)ccc1-2,,inactive: -9.59%
O=C(Nc1ccc2c(c1)OCCO2)c1cc(-c2ccccc2)nc2ccccc12,"inconclusive: 39.8 µM [inhibitor, single point]",
CCc1nnc(NC(=O)CSc2nc3cc4c(cc3cc2C)OCCO4)s1,"inconclusive: 39.8 µM [activator, single point]",
COc1ccc(S(=O)(=O)Nc2ccccc2C(=O)Nc2nc(-c3ccc(F)cc3)cs2)cc1OC,active: 20 µM,
CC(C)c1c(C(=O)Nc2ccccc2)c(-c2ccccc2)c(-c2ccc(F)cc2)n1CC[C@@H](O)C[C@@H](O)CC(=O)O,"inconclusive: 7.08 µM [activator, single point]",
Cn1cccc1C(=O)N1CCC[C@@]2(CCN(c3ccncc3)C2)C1,,inactive: 0.376%
COc1ccc2c(c1OC)C(=O)OC2c1c(O)n(Cc2ccc(F)cc2)c(=O)[nH]c1=O (configuration not stated),,inactive: 10.1%
COc1ccc([N+](=O)[O-])cc1COc1ccc2c(-c3ccccc3)cc(=O)oc2c1,"inconclusive: 6.31 µM [inhibitor, single point]",
Cc1ccc(NC(=O)C(OC(=O)c2ccc(F)cc2)c2ccccc2)cc1Cl (configuration not stated),"inconclusive: 39.8 µM [inhibitor, single point]",
N/C(=N\c1nc2ccccc2o1)NC(=O)c1ccc(F)cc1,"inconclusive: 25.1 µM [inhibitor, single point]",
Nc1ccc(-c2nc3ccc(C(=O)O)cc3s2)cc1,"inconclusive: 39.8 µM [inhibitor, single point]",
CC1CCc2c(sc(NC(=O)c3ccc(Cn4cc([N+](=O)[O-])cn4)o3)c2C#N)C1 (configuration not stated),,inactive: -17.1%
C=CCn1c(=O)c2ccc(C(=O)NCc3ccccc3)cc2n(Cc2ccc(C)cc2)c1=O,"inconclusive: 39.8 µM [inhibitor, single point]",
CCN(CC)C(=O)C1=C(C)NC(=S)NC1c1cn(-c2ccccc2)nc1-c1ccc(Cl)cc1 (configuration not stated),"inconclusive: 5.01 µM [inhibitor, partial curve]",
Cc1cccc(-n2[nH]c3c4c(ccc3c2=O)C(=O)c2ccccc2C4=O)c1,"inconclusive: 39.8 µM [inhibitor, single point]",
Cc1ccc(OCCN2C(=O)c3ccccc3C2=O)cc1,"inconclusive: 3.16 µM [inhibitor, single point]",
Cc1ccc(S(=O)(=O)N2CCOCC2)cc1C(=O)OCC(=O)N1c2ccccc2NC(=O)C1(C)C,"inconclusive: 39.8 µM [activator, single point]",
Cc1ccc(CC(=O)Nc2nc3ccccc3[nH]2)cc1C,"inconclusive: 39.8 µM [inhibitor, single point]",
COc1ccc(-c2nc(-c3ccccc3)c(NC(C)C)o2)cc1,,inactive: -11.3%
CCOC(=O)c1cc(-c2ccc(OC)cc2)n(CCC(=O)NCc2ccccc2OC)c1C,"inconclusive: 25.1 µM [activator, single point]",
Cn1ncc2c(NCc3ccc(Cl)cc3)ncnc21,,inactive: -8.52%

# From PubChem BioAssay AID1476 (National Center for Advancing Translational Sciences (NCATS), 2009)
